The source of these data is PMC6602471.

The list shows a part of the results. At the low end of the ranking the order means little.

For this experiment, the target named is T1, ELK1 (UniProt P19419).
T1 sequence: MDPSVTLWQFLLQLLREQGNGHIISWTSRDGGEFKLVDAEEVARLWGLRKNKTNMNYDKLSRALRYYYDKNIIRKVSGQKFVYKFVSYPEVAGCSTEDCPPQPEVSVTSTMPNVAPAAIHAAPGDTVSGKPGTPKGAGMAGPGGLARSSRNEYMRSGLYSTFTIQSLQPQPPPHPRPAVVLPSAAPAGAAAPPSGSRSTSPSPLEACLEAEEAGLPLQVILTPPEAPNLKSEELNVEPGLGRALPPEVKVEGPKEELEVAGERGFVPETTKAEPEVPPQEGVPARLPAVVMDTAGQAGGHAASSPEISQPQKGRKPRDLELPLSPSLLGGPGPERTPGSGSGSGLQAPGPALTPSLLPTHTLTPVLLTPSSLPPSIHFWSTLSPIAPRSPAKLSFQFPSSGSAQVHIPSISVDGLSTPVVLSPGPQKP
The experiment is described as follows: custom PBM. To be noted: custom protein-binding microarray; buffer, salt, pH and temperature not stated; high values mean tight binding; double strand, one strand shown.
For “GTGTATAGGATCTCATCCAACACACGTGTTAAAATGGTCTTGATTCGCTTGACGCTGCTG”, the binding signal (log fluorescence intensity) came out at 8.98.

On to “TAAAGGGAAGACGGTTGTGGTAGTTCAGGGTATTAAGTCTTGATTCGCTTGACGCTGCTG”, for which the binding signal (log fluorescence intensity) came to 8.96.

In the case of “GATTAATTTCTGCCCTTATTCGCACGTGCCTTAACAGTCTTGATTCGCTTGACGCTGCTG”, the binding signal (log fluorescence intensity) was 8.92.

In the case of “TATCGGGTAAGGGAATGTAGATCACGTGAATGAAAAGTCTTGATTCGCTTGACGCTGCTG”, the binding signal (log fluorescence intensity) was determined as 8.89.

As for “CAGCATAGGACTTCTTCCCTGAAGCAACTGATAACCGTCTTGATTCGCTTGACGCTGCTG”, the binding signal (log fluorescence intensity) is 8.89.

Turning to “CATCATAGGACTTCTTCCCTGAAGCAATTGATAACCGTCTTGATTCGCTTGACGCTGCTG”, the binding signal (log fluorescence intensity) turned out to be 8.88.

Turning to “ACCGGCTACCAGCTCCACCCACTTCAGGCCTTGTAGGTCTTGATTCGCTTGACGCTGCTG”, the binding signal (log fluorescence intensity) was found to be 8.77.

With “GCTGCTTCGGTGCATACCCCACCGGATGTGACCCCGGTCTTGATTCGCTTGACGCTGCTG”, the binding signal (log fluorescence intensity) is 10.2.

Take “CAGCATAGGACTTCTTCCTTGAAGCAATTGATAACCGTCTTGATTCGCTTGACGCTGCTG”: the binding signal (log fluorescence intensity) is 9.13.

Consider “TGTCAGGTAAGGGAATGTAGATCACGTGAATGAAAAGTCTTGATTCGCTTGACGCTGCTG”, for which the binding signal (log fluorescence intensity) was 8.9.

As for “GAATAATTTCTGCCCTTATTCGCACGTGCCATAACAGTCTTGATTCGCTTGACGCTGCTG”, the binding signal (log fluorescence intensity) worked out at 8.99.

Consider “CGGAAGTGTCGTAAACGTCGGATATCCGGTTCTTCCGTCTTGATTCGCTTGACGCTGCTG”, for which the binding signal (log fluorescence intensity) turned out to be 13.

In the case of “TCTCGGGTAAGGGAATGTAGATCACGTGAATGAAAAGTCTTGATTCGCTTGACGCTGCTG”, the binding signal (log fluorescence intensity) was 8.95.

Turning to “TACTGACTTATATATGCGAATGCACACGAATAGACCGTCTTGATTCGCTTGACGCTGCTG”, the binding signal (log fluorescence intensity) was determined as 8.86.

As to “TAAACGGAAGACGGTTGTGGTAGTTCCGGGTATTAAGTCTTGATTCGCTTGACGCTGCTG”, the binding signal (log fluorescence intensity) was found to be 12.5.

For the sequence “GTGTATAGGATCCTATCCAACACACGTGTTAAAATGGTCTTGATTCGCTTGACGCTGCTG”, the binding signal (log fluorescence intensity) amounted to 8.82.

With “TACGGCTACCAGCTCCACCCACTTCAGGCCTTGTAGGTCTTGATTCGCTTGACGCTGCTG”, the binding signal (log fluorescence intensity) was 8.75.

Consider “CACAATTTTTACAGTTATGTAGCACGCGTAACTCCTGTCTTGATTCGCTTGACGCTGCTG”, for which the binding signal (log fluorescence intensity) was determined as 8.94.

In the case of “GGAAGAAGGCCCAGGGTAACACCGGAAGTGGGCTTAGTCTTGATTCGCTTGACGCTGCTG”, the binding signal (log fluorescence intensity) stood at 10.9.

Regarding “TACTGACTCATATATGCGAATGCACATGAATAGACCGTCTTGATTCGCTTGACGCTGCTG”, the binding signal (log fluorescence intensity) worked out at 8.97.

Turning to “CGGAAGTGTCGTAAACGCCGGATATCCGGTTCTTCTGTCTTGATTCGCTTGACGCTGCTG”, the binding signal (log fluorescence intensity) was 13.3.

Take “CGGAAGTGTCGTAAACGTCGGATATCCGGCTCTTCTGTCTTGATTCGCTTGACGCTGCTG”: the binding signal (log fluorescence intensity) is 12.4.

Regarding “CGGAAGTGTCATAAACGTCGGATATCCGGTTCTTCTGTCTTGATTCGCTTGACGCTGCTG”, the binding signal (log fluorescence intensity) was 12.1.

On to “CAGCATAGGACTTCTTCTCTGAAGCAATTGATAACCGTCTTGATTCGCTTGACGCTGCTG”, for which the binding signal (log fluorescence intensity) came out at 8.79.

Consider “GCTGCTGCGGTGCAAACCCCACCGGATGTGACCCCGGTCTTGATTCGCTTGACGCTGCTG”, for which the binding signal (log fluorescence intensity) stood at 10.2.

“TACTGACTTATATATGCGAATGCACATGAATAGAGCGTCTTGATTCGCTTGACGCTGCTG”: the binding signal (log fluorescence intensity) turned out to be 8.88.

Regarding “TCCGGCTACTAGCTCCACCCACTTCAGGCCTTGTAGGTCTTGATTCGCTTGACGCTGCTG”, the binding signal (log fluorescence intensity) was 8.93.

Consider “GTGTATAGGATCCCGTCCAACACACGTGTTAAAATGGTCTTGATTCGCTTGACGCTGCTG”, for which the binding signal (log fluorescence intensity) is 8.8.

Regarding “GATTAATTTCTGCCCTTATTCGCACGTGCCATGACAGTCTTGATTCGCTTGACGCTGCTG”, the binding signal (log fluorescence intensity) was determined as 8.86.

Consider “CGGAAGTGTCGTAAACATCGGATATCCGGTTCTTCTGTCTTGATTCGCTTGACGCTGCTG”, for which the binding signal (log fluorescence intensity) amounted to 12.6.

On to “TGTCGGGTAAGGGAATGTAGATCACGTGAATGGAAAGTCTTGATTCGCTTGACGCTGCTG”, for which the binding signal (log fluorescence intensity) worked out at 8.81.

On to “GATTAATTTCTTCCCTTATTCGCACGTGCCATAACAGTCTTGATTCGCTTGACGCTGCTG”, for which the binding signal (log fluorescence intensity) amounted to 9.19.

Regarding “TGTCGGGTAAGGGAATGTAGATAACGTGAATGAAAAGTCTTGATTCGCTTGACGCTGCTG”, the binding signal (log fluorescence intensity) is 8.93.

As to “CGGGAGTGTCGTAAACGTCGGATATCCGGTTCTTCTGTCTTGATTCGCTTGACGCTGCTG”, the binding signal (log fluorescence intensity) was found to be 12.1.

“TACTGACTTATATATGCGAATGGACATGAATAGACCGTCTTGATTCGCTTGACGCTGCTG”: the binding signal (log fluorescence intensity) stood at 8.79.

As for “TGTCGGGTAAGGGAATGTAAATCACGTGAATGAAAAGTCTTGATTCGCTTGACGCTGCTG”, the binding signal (log fluorescence intensity) came to 8.82.

For the sequence “TGTCGGGTAAGGGAATATAGATCACGTGAATGAAAAGTCTTGATTCGCTTGACGCTGCTG”, the binding signal (log fluorescence intensity) stood at 8.88.

On to “CTGGGACATGACCCAACTCTGCCACGTGGGTCGTTTGTCTTGATTCGCTTGACGCTGCTG”, for which the binding signal (log fluorescence intensity) was 8.96.

Take “TCCGGCTACCAGCTCCACCCACTTAAGGCCTTGTAGGTCTTGATTCGCTTGACGCTGCTG”: the binding signal (log fluorescence intensity) came out at 8.77.

With “TAAAGGGAAGACGGTTGTTGTAGTTCCGGGTATTAAGTCTTGATTCGCTTGACGCTGCTG”, the binding signal (log fluorescence intensity) was 11.4.

In the case of “GTGTATAGGATACCATCCAACACACGTGTTAAAATGGTCTTGATTCGCTTGACGCTGCTG”, the binding signal (log fluorescence intensity) was determined as 8.88.
